Data as given in PubChem BioAssay (NCATS).
Where “and” joins values, the source holds several entries; their conditions need not be identical. Equal values may be shown once. The shares of active, inactive and inconclusive entries below differ from those in the screen. Potencies of inconclusive entries are doubtful fits and often do not repeat. Calls of active or inactive are those of the source. Calls follow the shape of the dose curve; as a rule, active = well fitted curve in the direction sought with a large enough effect; inconclusive = small, poorly fitted or top-dose-only effect, or another doubt; inactive = no such curve, though single readings can be large; an effect the other way counts as inactive or inconclusive.

How the values were obtained:
[1] = qHTS of pediatric cancer cell lines to identify multiple opportunities for drug repurposing: Primary screen for SK-N-MC cells (AID 1347093); conditions: SK-N-MC viability, CellTiter-Glo luminescence, 48 h; activity change, negative = cytotoxic: at 46 µM (top of the series)
Outline: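 Metabolically active cells were quantified by ATP-dependent luminescence (CellTiter-Glo, 15 min at room temperature) following 48 h treatment. Cells had been plated at 500-1,000 per well and settled for 5 h beforehand.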

[2] = qHTS of pediatric cancer cell lines to identify multiple opportunities for drug repurposing: Primary screen for BT-37 cells (AID 1347094)
Outline: (§1)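 Luminescence from CellTiter-Glo served as readout of metabolically active cells after 48 h compound exposure. Titrations: MIPE 11-point, from 0.78 nM; NPC 8-point, from 0.59 nM (final). Concentration-response curves came straight from the primary screen.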

[3] = qHTS of pediatric cancer cell lines to identify multiple opportunities for drug repurposing: Primary screen for NB-EBc1 cells (AID 1347095)
Outline: as §1

[4] = qHTS of pediatric cancer cell lines to identify multiple opportunities for drug repurposing: Primary screen for U-2 OS cells (AID 1347096); also: nearly all actives have a fitted effect of over 50% in size
Outline: (§2)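 Cells (500-1,000/well) rested 5 h, then received compounds for 48 h; metabolically active cells were measured by CellTiter-Glo luminescence. Final concentrations spanned up to 46 µM (MIPE, 11-point) or 0.59 nM-46 µM (NPC, 8-point) in primary screens, 11-point in follow-ups.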

[5] = qHTS of pediatric cancer cell lines to identify multiple opportunities for drug repurposing: Primary screen for Saos-2 cells (AID 1347097); conditions: Saos-2 viability, CellTiter-Glo ATP luminescence, 48 h; activity change, negative = cytotoxic: at 46 µM (top of the series); also: nearly all actives have a fitted effect of over 40% in size
Outline: as §1

[6] = qHTS of pediatric cancer cell lines to identify multiple opportunities for drug repurposing: Primary screen for SK-N-SH cells (AID 1347098); also: nearly all actives have a fitted effect of over 65% in size;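 as to activity change, negative = cytotoxic: DMSO served as neutral control and bortezomib at 2.3 µM as positive control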
Outline: as §2

[7] = qHTS of pediatric cancer cell lines to identify multiple opportunities for drug repurposing: Primary screen for NB1643 cells (AID 1347099); also: nearly all actives have a fitted effect of over 50% in size
Outline: as §1

[8] = qHTS of pediatric cancer cell lines to identify multiple opportunities for drug repurposing: Primary screen for BT-12 cells (AID 1347101); also: nearly all actives have a fitted effect of over 25% in size
Outline: as §2

[9] = qHTS of pediatric cancer cell lines to identify multiple opportunities for drug repurposing: Primary screen for LAN-5 cells (AID 1347100); conditions: LAN-5 neuroblastoma viability, CellTiter-Glo luminescence, 48 h; activity change, negative = cytotoxic: at 46 µM (top of the series)
Outline: as §2

Measured: Potency
Potency is read from the fitted curve at half-maximal effect; tags tell the direction and shape of the fitted curve.

CC(=O)Oc1ccccc1C(=O)O
inconclusive: [1] 9.35 µM [cytotoxic, single point]

O=Cc1ccc(O)c(O)c1O
inactive: [2] | [3] | [8]
inconclusive: [1] 33.5 µM [cytotoxic, single point] | [4] 16.8 µM [cytotoxic, partial curve, poor fit] | [5] 29.9 µM [cytotoxic, single point] | [6] 38.6 µM [cytotoxic, single point] | [7] 16.8 µM [cytotoxic, partial curve]

CCOC(=O)N1CCN([N+]([O-])=NOc2ccc([N+](=O)[O-])cc2[N+](=O)[O-])CC1
inconclusive: [4] 9.35 µM [cytotoxic, full curve] | [8] 7.69 µM [cytotoxic, full curve]
active: [1] 8.33 µM | [2] 15.3 µM | [6] 27.1 µM | [9] 11.8 µM

Nc1nc2ccc([N+](=O)[O-])cc2s1
inconclusive: [1] 77 µM [cytotoxic, partial curve, poor fit] | [2] 31.7 µM [cytotoxic, partial curve] | [4] 24.3 µM [cytotoxic, partial curve, poor fit] | [6] 28 µM [cytotoxic, partial curve] | [7] 38.6 µM [cytotoxic, single point] | [8] 28.2 µM [cytotoxic, partial curve, poor fit]

CC(C)(C(=O)NCC(F)(F)C(F)(F)F)C(=O)N[C@@H]1C(=O)Nc2ccccc2-c2ccccc21
inconclusive: [5] 0.372 µM [cytotoxic, full curve, poor fit] | [6] 4.82 µM [cytotoxic, full curve]
active: [1] 3.72 µM | [2] 0.769 µM | [3] 4.69 µM | [9] 0.662 µM | [8] 1.09 µM

Nc1nc2ccc(OC(F)(F)F)cc2s1
inconclusive: [1] 37.2 µM [cytotoxic, single point] and 18.8 µM [cytotoxic, single point] | [2] 24.3 µM [cytotoxic, partial curve, poor fit] and 34.7 µM [cytotoxic, single point] | [3] 23.5 µM [cytotoxic, partial curve] | [5] 13.2 µM [cytotoxic, partial curve] and 21.1 µM [cytotoxic, partial curve] | [6] 43.3 µM [cytotoxic, partial curve, poor fit] | [9] 11.8 µM [cytotoxic, partial curve, poor fit] and 33.5 µM [cytotoxic, single point] | [8] 17.2 µM [cytotoxic, partial curve] and 15.5 µM [cytotoxic, partial curve]

CCCCCCCCCCCC(=O)[O][Sn]([CH2]CCC)([CH2]CCC)[O]C(=O)CCCCCCCCCCC
inactive: [1]

C[C@H]1C[C@H]2[C@@H]3CCC4=CC(=O)C=C[C@]4(C)[C@@]3(Cl)[C@@H](O)C[C@]2(C)[C@@]1(O)C(=O)CO
active: [1] 15 µM

Nc1ccc(C(=O)O)c(O)c1
not listed: [4] | [5] | [8]
inactive: all other assays above

CC(C(=O)O)c1ccc(-c2ccccc2)c(F)c1 (configuration not stated)
inconclusive: [1] 37.2 µM [cytotoxic, partial curve, poor fit] | [2] 27.3 µM [cytotoxic, single point] | [5] 16.6 µM [cytotoxic, partial curve]

CNC1[C@H](O)C(O[C@@H]2C(O)C(O[C@H]3O[C@H]([C@@H](C)NC)CC[C@H]3N)[C@@H](N)C[C@H]2N)OC[C@]1(C)O (some centres not stated)
inactive: [1] | [3]

CCOC1OC(=O)C[C@H]1NC(=O)[C@@H]1CCCN1C(=O)[C@@H](NC(=O)c1ccc(N)c(Cl)c1)C(C)(C)C (some centres not stated)
inconclusive: [2] 0.968 µM [cytotoxic, full curve] | [6] 34.1 µM [cytotoxic, single point] | [7] 2.64 µM [cytotoxic, full curve]
active: [1] 14.8 µM
